# From paper PMC4336329 (PLoS ONE, 2015)
# The campaign covered roughly 310,000 compounds. About 14,000 (4.5%) showed an effect of 50% or more. Effects have a minus sign here. This is one part of the list.
# Biological target: human ether-à-go-go-related gene (hERG) potassium channel (human, UniProt Q12809)
# Assay: primary screen, population patch clamp on CHO cells stably expressing hERG
# 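Further: peak tail current of the secondary pulse compared with the same well before compound.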
# Sequence of human ether-à-go-go-related gene (hERG) potassium channel (Q12809 whole entry, looked up): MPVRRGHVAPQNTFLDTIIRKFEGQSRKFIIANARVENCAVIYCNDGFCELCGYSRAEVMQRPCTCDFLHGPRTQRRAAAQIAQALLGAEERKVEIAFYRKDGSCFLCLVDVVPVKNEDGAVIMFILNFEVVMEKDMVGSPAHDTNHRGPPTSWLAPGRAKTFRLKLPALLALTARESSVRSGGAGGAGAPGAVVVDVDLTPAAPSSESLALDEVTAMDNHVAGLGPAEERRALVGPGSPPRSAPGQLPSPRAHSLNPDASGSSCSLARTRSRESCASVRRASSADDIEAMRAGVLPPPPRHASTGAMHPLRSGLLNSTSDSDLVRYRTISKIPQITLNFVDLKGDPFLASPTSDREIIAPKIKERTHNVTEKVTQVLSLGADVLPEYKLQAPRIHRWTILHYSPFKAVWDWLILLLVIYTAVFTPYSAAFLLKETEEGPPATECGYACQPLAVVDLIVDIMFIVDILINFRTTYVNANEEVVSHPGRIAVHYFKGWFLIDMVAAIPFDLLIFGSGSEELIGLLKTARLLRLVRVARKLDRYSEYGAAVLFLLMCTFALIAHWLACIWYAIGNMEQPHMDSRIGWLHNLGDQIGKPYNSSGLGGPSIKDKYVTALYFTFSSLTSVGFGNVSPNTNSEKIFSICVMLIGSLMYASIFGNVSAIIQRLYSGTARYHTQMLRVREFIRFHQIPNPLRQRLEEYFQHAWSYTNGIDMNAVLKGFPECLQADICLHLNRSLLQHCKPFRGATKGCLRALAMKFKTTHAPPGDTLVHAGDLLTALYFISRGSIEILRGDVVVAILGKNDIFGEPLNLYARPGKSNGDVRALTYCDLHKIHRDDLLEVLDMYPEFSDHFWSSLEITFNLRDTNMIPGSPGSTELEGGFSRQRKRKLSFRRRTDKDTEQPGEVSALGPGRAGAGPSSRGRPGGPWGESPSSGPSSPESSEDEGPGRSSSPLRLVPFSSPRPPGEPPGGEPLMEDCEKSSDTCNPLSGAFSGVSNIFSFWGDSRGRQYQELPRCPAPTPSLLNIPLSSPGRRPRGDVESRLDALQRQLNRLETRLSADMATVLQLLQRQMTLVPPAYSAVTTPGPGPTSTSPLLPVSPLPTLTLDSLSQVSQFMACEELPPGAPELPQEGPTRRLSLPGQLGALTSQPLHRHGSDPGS
row,SMILES,"hERG current change (%, negative = inhibition) at 10uM [%]"
1,CCOC(=O)c1nn(-c2ccccc2)cc1O,13.2
2,Oc1c(C(c2ccco2)N2CCN(C(c3ccccc3)c3ccccc3)CC2)sc2ncnn12 (centres unmarked),-1.92
3,COc1ccc(S(=O)(=O)N2CCC(C(=O)N3CCC(C(N)=O)CC3)CC2)cc1Cl,1.6
4,Cc1ccccc1OCc1nnc(SCC(=O)Nc2c(C)n(C)n(-c3ccccc3)c2=O)n1-c1ccccc1,-13.7
5,C/C(Nc1cccc(F)c1)=C(/C#N)C(N)=O,7.81
6,Cc1nc2cc(S(=O)(=O)C(F)(F)F)ccc2s1,-4.12
7,O=C(NNc1c2ccccc2nc2ccccc12)c1ccc(O)cc1O,10.5
8,CC(OC(=O)C1CCCC1)C(=O)Nc1ncc(Cl)cc1Cl (centres unmarked),-2.36
9,COC(CNC(=O)CNC(=S)N(Cc1ccccc1)Cc1cccnc1)OC,0.417
10,CCO[C@H]1OC(C(=O)N2CCOCC2)=C[C@@H](c2ccc3c(c2)OCO3)[C@@H]1CCCO,4.59
11,CCOc1ccc(S(=O)(=O)Nc2cccc(C(=O)NCC3CCCO3)c2)cc1 (centres unmarked),1.2
12,COC(=O)c1ccccc1NC(=O)CCn1c(=O)oc2ccccc21,-4.74
13,O=C(CN(C(=O)CNC(=O)c1cccs1)c1cccc(F)c1)NC1CCCC1,-12
14,CCOc1ccc(Br)cc1S(=O)(=O)NCCN1CCCC1.Cl,-5.1
15,CCCCn1c(N)c(N(CCOC)C(=O)c2ccco2)c(=O)[nH]c1=O,0.12
16,O=C(CNC(=O)c1ccc2c(c1)OCO2)Nc1ncccc1O,-2
17,COc1ccccc1CC(=O)c1ccc(OCc2ccccc2)cc1,8.43
18,COc1ccc(CN(C(=O)c2oc3ccc(F)cc3c2C)C2CCS(=O)(=O)C2)cc1 (centres unmarked),-25
19,Cc1cc(NC(=O)CSc2n[nH]c(CC(C)C)n2)no1,0.857

row,SMILES,"hERG current change (%, negative = inhibition) at 10uM [%]"
1,COc1ccc(/C=C/c2cc(C(F)(F)F)[nH]c(=O)n2)cc1OC,-6.91
2,CCCc1c(C(=O)N/N=C/c2ccc(OC)c(OCc3ccccc3)c2)nnn1-c1nonc1N,7.71
3,O=C(c1ccccc1Cl)N1CCC(c2nc3c(nnn3Cc3ccco3)c(=O)[nH]2)CC1,-22.1
4,O=[N+]([O-])c1ccccc1N(CC1CO1)S(=O)(=O)c1ccccc1 (centres unmarked),2.02
5,Cc1ccc(Nc2nc(N)c(C#N)c(CC#N)c2C#N)cc1,-3.61
6,CC[C@]12CCCN3CCc4c(n(c5ccccc45)C(=O)C1)[C@@H]32,-75
7,O=C(CSc1nc2c(c(=O)n1-c1ccc(F)cc1)SCC2)Nc1ccc2c(c1)OCO2,-2.35
8,O=C(c1ccc2c(c1)OCCO2)C1CCN(C(=O)Nc2ccc(F)cc2)CC1,-6.26
9,O=C(CNC(=O)c1cccs1)OCC(=O)c1ccccc1Cl,17.2
10,COCCN(C(=O)c1ccccc1Oc1ccccc1)c1c(N)n(CC(C)C)c(=O)[nH]c1=O,8.21
11,O=C(Nc1cccc(C(=O)N2CCOCC2)c1)c1ncn[nH]1,10
12,Cc1cccc(N2C(=N)SCC2=O)c1C,13.3
13,N#C/C(=C\c1ccc(Cl)cc1)C(=O)NC1CC1,0.943
14,Cc1cccc(C(=O)NNC(=O)CSc2nnc(C(C)C)n2C)c1,8.68
15,COc1ccc(NC(=S)NCCc2ccccc2)c(C)c1,-1.17
16,COc1cccc(-c2nc(-c3ccccn3)no2)c1OC,0.968
17,COCc1cc(C)nc(SCC(=O)N2CCC(C)CC2)c1C#N,2.86
18,CC1(C)C(C=C(Cl)Cl)C1C(=O)N(Cc1cccc(Cl)c1)C1CCS(=O)(=O)C1 (centres unmarked),4.24
19,CC(C)OC(=O)C1=C(N)N2C(=O)CSC2=C(C(=O)OC(C)C)C1,0.706

row,SMILES,"hERG current change (%, negative = inhibition) at 10uM [%]"
1,CCOc1ccccc1/C=N/Nc1nc2c(N)ncnc2n1[C@H]1O[C@@H](CO)[C@H](O)[C@@H]1O,-9.61
2,CCOc1cc(N2CCOCC2)c(OCC)cc1NC(=O)C1CC(=O)N(c2ccccc2OCC)C1 (centres unmarked),3.54
3,O=C(NCc1ccc(F)c(F)c1)C1CCC(=O)N(CC2CCCCC2)C1 (centres unmarked),-17.4
4,O=C(Cc1ccc([N+](=O)[O-])cc1)N1CCN=C1SCc1ccccc1,-7.33
5,CC(C)N1CCN(Cc2cnc(-c3ccccc3)s2)CC1CCO (centres unmarked),-9.9
6,CCC(=O)Nc1c(C(=O)Nc2ccc3c(c2)OCCO3)oc2ccccc12,2.97
7,CS(=O)(=O)N1CCC(C(=O)N2CCN(Cc3ccccc3)CC2)CC1,26.7
8,O=C(CN1C(=O)C2(OCCO2)c2ccccc21)c1ccc(Br)cc1,-8.72
9,CC(=O)c1c(N2CCOCC2)nc(=O)n(-c2ccccc2)c1C,11.8
10,Cc1cccc(N(C)S(=O)(=O)c2c(C)noc2C)c1,-5.07
11,CCc1cccc(CC)c1NC(=O)CO/N=C(\C)c1cccs1,-5.52
12,COc1cc(/C=C2\SC(=S)N(C(C(=O)O)c3ccccc3)C2=O)cc(OC)c1OC (centres unmarked),21.2
13,COC(=O)C1=C(O)C2(C(=O)O)CC(C(=O)OC)=C(O)C(C(=O)O)(C1)C2,4.75
14,CC(=O)c1cccc(NC(=O)CC2S/C(=N/N=C/c3cccs3)NC2=O)c1 (centres unmarked),-27.6
15,O=c1[nH]c(=O)n(C2C[C@H](O)[C@@H](CO)O2)cc1C(F)(F)F (some centres unmarked),12.2
16,COC(=O)CN1C(=O)S/C(=C/c2cc(C)n(C)c2C)C1=O,-14.1
17,CN1C(=O)N(C)C(=O)C2(Cc3cc(NC(=O)c4ccccc4)ccc3N3CCCC32)C1=O (centres unmarked),25.9
18,CC1=C(C)CC(C(=O)Nc2cccc([N+](=O)[O-])c2)C(C(=O)O)C1 (centres unmarked),0.0439
